# In the RNAGym collection of RNA variant scans (doi:10.7554/elife.90254):
# Read counts are not given, so values of variants with three or more changes are uncertain.
# B1: LINE1-mini (parent)
# chain: GGCAGAGCUCAACACAGCGUGGCAAAGUGGCUGUGGCUAGACUGCC
# Variants of: B1
# Test: self-cleavage, relative activity (ratio to wild type); higher = more cleavage; in vitro, sequencing; the parent is a self-cleaving ribozyme
row,Variant,self-cleavage
1,G1C G2A C10U G27C,0.05
2,G1C G17A G35A G36C,0.02
3,G1C G7C U20G A25U,0.02
4,G1C C13A G19C C46U,0
5,G1C A14U G21U G36C C37U,0
6,G1C A14G U32A,0
7,G1C C10A A14U A26U U28A C37U,0.01
8,G1C G19A A39U G44U,0.06
9,G1C C13U G35A,0.12
10,G1C A16C A24G G36C,0.01
11,G1C C10U C15U A25U U28C G40C,0
12,G1C C10U C15U U20C G22A G35U,0.02
13,G1C C23U A39C,0
14,G1C A16C G27U C31U U32G,0.03
15,G1C C13U C37A,0.06
16,G1C C18G U20G A25U,0
17,G1C G5U A6C C10U A12U G19U G29U,0
18,G1C G2U C10U G29A A39C U43C,0
19,G1C G7C A12G C42U,0.04
20,G1C G5U C8A G27U,0.1
21,G1C G7C G30U,0.01

row,Variant,self-cleavage
1,G1C C10A A14U A16G,0.01
2,G1C C10U A11U G17U C31A,0.01
3,G1C G7U C15U,0.02
4,G1C C42U C46U,0.02
5,G1C G17C G35A C37A C46A,0
6,G1C A14G A41U,0.05
7,G1C A14G A41C,0.03
8,G1C C23G G30C U32C G33C U43A,0
9,G1C C23A A41U,0.17
10,G1C A12C C15G U34C,0.02
11,G1C G5U G33U A39G C45U,0.02
12,G1C G7U A12C G19A U20G,0.02
13,G1C A16C G33A,0
14,G1C G22C A39C C45A,0.01
15,G1C A14G A16C G17U C42A,0.01
16,G1C A12C G27C G33U,0.01
17,G1C C10U G22U U38C,0.05
18,G1C C8G G27A,0.01
19,G1C A24U U28A,0.09
20,G1C C8U C23U G36C,0.03
21,G1C C3G A14U G17U A24G A41U,0.03

row,Variant,self-cleavage
1,G1C G5C C8G U20A C37G,0
2,G1C C3G G7C C10A G27A G29C,0.02
3,G1C A14C G30U G33A,0.01
4,G1C G7C G44A C45A,0.07
5,G1C G5C A6C G7U G17U,0.05
6,G1C G5C A39G C42U,0.03
7,G1C A12G G33C,0.01
8,G1C C3U A6C C42G,0.03
9,G1C G2A C13U G35C C37U C46G,0.02
10,G1C C15A G19C U20A A26U,0.03
11,G1C G7A A14C C15G A16C U34A,0
12,G1C C8A C23A A39G,0.02
13,G1C C8U C15U G17U,0.02
14,G1C G7U C42U,0.04
15,G1C C18U C31U A41G,0.01
16,G1C C15A A25G G36A,0.05
17,G1C A25G U28C,0.02
18,G1C G21A G33U G35U,0.01
19,G1C G22C A25G A26U,0.06
20,G1C C13G C37G,0.02
21,G1C G7C C23G U43C,0.02

row,Variant,self-cleavage
1,G1C G21U C31G,0.02
2,G1C C8A C18U,0
3,G1C C8U U32A C42U,0.02
4,G1C A16G G17U U20A A39U,0.02
5,G1C G7C G29U C42G,0.01
6,G1C G7C A12G U28A,0.01
7,G1C C10A A41G,0
8,G1C G22U A26U U38C G44U,0.02
9,G1C G2C A26U,0.05
10,G1C G17C A26U U34C,0.02
11,G1C A16U C18A,0.05
12,G1C G5U C8U G22A G29U,0.01
13,G1C C10A C15A,0.01
14,G1C A16G U38C,0.02
15,G1C A12C G17U G21A A25C C37G C42G C45U,0
16,G1C G7C U9A G27C G29A,0.02
17,G1C A26U G35C,0.01
18,G1C G19U G36A A39G,0.04
19,G1C G5A C23G C42A,0.07
20,G1C G7A C18A G35A G44U,0
